Data taken from the RNAGym collection of RNA variant scans (doi:10.1093/nar/gkz1192).
The source gives no read counts; variants with many changes may rest on few reads.

B1: CPEB3 Ribozyme (parent)
chain: UAACAGGGGGCCACAGCAGAAGCGUUCACGUCGCAGCCCCUGUCAGAUUCUGGUGAAUCUGCGAAUUCUGCUGUAUAUCUC

Variants of: B1
Assay: self-cleavage, relative activity (ratio to wild type); higher = more cleavage; in vitro, sequencing
Outline: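 After error-prone PCR and barcoding, CPEB3 ribozyme mutant libraries were transcribed with T7 RNA polymerase at 37°C for 5 hours, then given 15 min with DNase I before an EDTA stop, and they cleaved during both steps. Reverse transcription with template switching preceded Illumina sequencing. Relative activity divides a variant's cleaved/total read fraction by the unmutated ribozyme's. At least 5 reads were required per variant, and three batches were averaged.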

For UAACAGGGGGCCACAGCAGAAGCGUUCUCGUCGCAGCCCCUGUCAGAUACUGGUGAGUCUGCGAAUUCUGCUGUAUAUCUC, which self-cleavage is on record?
The self-cleavage was 0.43.

With UAACAGGGGGCCACAGCAGAAGCGUUCUCGUCGCAGCCCCUGUCAGAUCCUGGUGAAUCUGCGAAUUAUGGUGUAUAUCUC as the variant, how does the self-cleavage read?
The self-cleavage was 0.15.

With UAACAGGGGGCCACAGCAGAAGCGUUCUCGUCGCAGCCCCUGUCAGACUCUGGUGAAUCUGCGAAUUCUGCUGUAUAUCCC as the variant, how does the self-cleavage read?
The self-cleavage was 0.56.

With UAACAGGGGGCCACAGCAGAAGCGUUCAAGUUGCAGCCCCUGUCUGAUUCUGGUGAAUCUGCGAAUUCUGUUGUAUAUCUC as the variant, how does the self-cleavage read?
Its self-cleavage is 0.12.

Which self-cleavage does the source give for UAACAGGGGGCCACAGCAGAAGCGUUCUCGUCGCAGCCCCUGUCAGAUUCUGGUGAAUCUGCGAACUCCGCUGUAUAUCUC here?
Its self-cleavage is 0.19.

With UAACAGGGGGCCACAGCAGAAGCGUUCAAGUCGCAGUCCCUGUCAGAUUCUGGUGAAUCUGCGGAAUCUGCUGUAUACCUC as the variant, how does the self-cleavage read?
The self-cleavage was 0.06.

With UAACAGGGGGCCACAGCAGAAGCGUUCUCGUCGCAGCCCCUGUCAGAUCCUGGUGAUUCUGCGAAUUCUGCUGUAUAUCCC as the variant, how does the self-cleavage read?
The self-cleavage was 0.33.

With UAACAGGGGGCCACAGCAGAAGCGUUCUCGUCGCAGCCCCUGUCAGAUUCGGGUGAAUCUGCGAACUCUGCUGUAUAUCUC as the variant, how does the self-cleavage read?
Its self-cleavage is 0.25.

Which self-cleavage does the source give for UAACAGGGGGCCACAGCAGAAGCGUUCAAGCCGCAGCCCCUGCCAGAUUCUGGUGAAUCUGCGGACUCUGCUAUAUAUCUC here?
The self-cleavage was 0.26.

With UAACAGGGGGCCACAGCAGAAGCGUUCUCGUCGCAGCCCCUGUCAGAUACAGGUGAUUCUGCGAAUUCUGCUGUAUAUCUC as the variant, how does the self-cleavage read?
The self-cleavage was 0.08.

Which self-cleavage does the source give for UAACAGGGGGCCACAGCAGAAGCGUUCAAGUCGCAGCCCCUGUCAGAUUCUGGUGAAUCUGUGAACUCCGCUGUAUACCUC here?
The self-cleavage was 0.08.

For UAACAGGGGGCCACAGCAGAAGCGUUCUCGUCGCAGCCCCUGUCAGAUUCUGGUGAAUCAGCGAAUACUGCUGUAUAUCUC, which self-cleavage is on record?
Its self-cleavage is 0.12.

For UAACAGGGGGCCACAGCAGAAGCGUUCUCGUCGCAGCCCCUGUCAGAUUCUGGUGAAUCCGCGAGUUCUGCGGUGUAUCUC, which self-cleavage is on record?
The self-cleavage was 0.1.

For UAACAGGGGGCCACAGCAGAAGCGUUCUCGUCGCAGCCCCUGUCAGAUUCUGGUGAAGCUGCGAAUUCUGCUGUGUAUCUC, which self-cleavage is on record?
Its self-cleavage is 0.3.

Which self-cleavage does the source give for UAACAGGGGGCCACAGCAGAAGCGUUCUCGUCGCAGCCCCUGUCAGAUCCUGGUGAAUCCGCGAAUUCUGCAGUAUAUCUC here?
The self-cleavage was 0.16.

With UAACAGGGGGCCACAGCAGAAGCGUUCAAGUCGCGGCCCCUGUCAGAUUCUGGUGAAUCUGCGAAUUCCGCUGCAUAUCUC as the variant, how does the self-cleavage read?
The self-cleavage was 0.75.

For UAACAGGGGGCCACAGCAGAAGCGUUCUCGUCGCAGCCCCUGUCAGAUUCCGGUGAAUCUGCGAACUCUGCUGUAUAUCUC, which self-cleavage is on record?
The self-cleavage was 0.16.

Which self-cleavage does the source give for UAACAGGGGGCCACAGCAGAAGCGUUCAAGUCGCUGCCCCUGUCAGGUUCUGGUGAAUCUGCGAAUUCUGCUGUAUAUCUC here?
The self-cleavage was 0.1.

For UAACAGGGGGCCACAGCAGAAGCGUUCUCGUCGCAGCCCCUGUCAGAUUCUGGUGAAUCAGCGAAUUCUGCUGUAUAUCGC, which self-cleavage is on record?
Its self-cleavage is 0.39.

For UAACAGGGGGCCACAGCAGAAGCGUUCUCGUCGCAGCCCCUGUCAGAUUCUGGAGAAUCUGCGAAUUCUGCUGUAAACCUC, which self-cleavage is on record?
The self-cleavage was 0.64.

For UAACAGGGGGCCACAGCAGAAGCGUUCUCGUCGCAGCCCCUGUCAGAUUCAGGCGUAUCUGCGAAUUCUGCUGUAUAUCUC, which self-cleavage is on record?
Its self-cleavage is 0.23.

For UAACAGGGGGCCACAGCAGAAGCGUUCAAGUCGCAGCCCAUGUCAGAUUCUGGUGAAUCUGCGAAUUCUGCUGUACAUCUC, which self-cleavage is on record?
The self-cleavage was 0.29.

For UAACAGGGGGCCACAGCAGAAGCGUUCUCGUCGCAGCCCCUGUCAGAUUCUGGUGAAUCUGCGAAUUCUGCUGUAUACCUU, which self-cleavage is on record?
Its self-cleavage is 0.99.

For UAACAGGGGGCCACAGCAGAAGCGUUCUCGUCGCAGCCCCUGUCAGAUUCAGGUGAAUCUGCGAAUUCUGCUGUUUAUCUC, which self-cleavage is on record?
Its self-cleavage is 0.59.

For UAACAGGGGGCCACAGCAGAAGCGUUCUCGUCGCAGCCCCUGUCAGAUUCUGGCGAAUCCGCGAAUUCUGCUGUAUAUCUC, which self-cleavage is on record?
Its self-cleavage is 0.21.

With UAACAGGGGGCCACAGCAGAAGCGUUCAAGUCGCAGCCCCUGUCAGAUUCUGGUGAUUCUGCGAAUUCUGCUGUGUAUCUC as the variant, how does the self-cleavage read?
The self-cleavage was 0.13.

For UAACAGGGGGCCACAGCAGAAGCGUUCUCGUCGCAGCCCCUGUCAGAUUCUGGUGAAUCAGCGUAUUCUGCUGUAUAUCUC, which self-cleavage is on record?
The self-cleavage was 0.26.

Which self-cleavage does the source give for UAACAGGGGGCCACAGCAGAAGCGUUCUCGUCGCAGCCCCUGUCAGAUUCUGGCGAAUCUGCGAAUUCUUCAGUAUAUCUC here?
Its self-cleavage is 0.15.

With UAACAGGGGGCCACAGCAGAAGCGUUCAAGUCGCAGCCCCUGUCAGAUUCUGGUGAGCCUGCGAAUUCUGCUGAGUAUCUC as the variant, how does the self-cleavage read?
Its self-cleavage is 0.11.

For UAACAGGGGGCCACAGCAGAAGCGUUCUCGUCGCAGCCCCUGUCAGAUUCUGGGGAAUCUGCGAAUUCUGCGGUAUAUCCC, which self-cleavage is on record?
The self-cleavage was 1.08.

For UAACAGGGGGCCACAGCAGAAGCGUUCUCGUCGCAGCCCCUGUCAGAUUCUGGCGAAUCUGCGAAUUCCGCUGUAUAUCUC, which self-cleavage is on record?
Its self-cleavage is 0.33.

For UAACAGGGGGCCACAGCAGAAGCGUUCAAGUCGCAGCCCCUGUCAGGUUCUGGUGAAUCUGCGAAAUCUGCAGUAUAUCUC, which self-cleavage is on record?
The self-cleavage was 0.15.

Which self-cleavage does the source give for UAACAGGGGGCCACAGCAGAAGCGUUCAAGUCGCAGCCCCUGUCAGUUUCUGGUGAAUCUGCGAAUUCUGCUGUAUACCUC here?
Its self-cleavage is 0.2.

Which self-cleavage does the source give for UAACAGGGGGCCACAGCAGAAGCGUUCUCGUCGCAGCCCCUGUCAGAUUCUGGUGAAUCCGCGAAUCCUGCUGUAUAUCUC here?
Its self-cleavage is 0.16.
